# Assay results: patent US20240301031A1 (JIANGSU HENGRUI PHARMACEUTICALS, published 2024)
# T1: human APRIL (5860-AP-010/CF, R&D Systems) (human, UniProt O75888 115-250, limits assumed)
# T1 construct: Bought protein
# T1 sequence (looked up): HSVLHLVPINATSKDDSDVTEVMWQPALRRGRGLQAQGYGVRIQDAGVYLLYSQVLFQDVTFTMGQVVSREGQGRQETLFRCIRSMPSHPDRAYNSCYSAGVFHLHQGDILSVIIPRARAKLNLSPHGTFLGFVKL
# B1: TACI-Mab2 (other)
# heavy: EVQLVQSGAEVKKPGESLKISCKGSGYSFTTYWLGWVRQMPGKGLDWIGIMSPVDSDIRYSPSFQGQVTMSVDKSITTAYLQWNSLKASDTAMYYCARRRPGQGYFDFWGQGTLVTVSS[omitted - human IgG1 constant region]GGSSTSCREEQGEFYDHLLRDCISCASICGQHPKQCAAFCENK
# light: STSCREEQGEFYDHLLRDCISCASICGQHPKQCAAFCENKLGGGGSGGGGSGGGGS[omitted - about 200 residues]
# notes: also called TACI antibody fusion protein
# Legend:
# [1] = molecular target: T1, human APRIL (5860-AP-010/CF, R&D …); assay: competition ELISA: biotin-labeled APRIL to coated BCMA
# Protocol: (§1) A receptor protein was diluted to 2 μg/mL with PBS at pH 7.4 (BasalMedia, B320) and added to a 96-well microplate (Corning, 3590) at 100 μL/well. The plate was incubated at 4° C. overnight. After the liquid was discarded, 200 μL of 1% Casein blocking solution (Thermo, 37528) was added to each well for blocking, and the plate was incubated at 37° C. for 2 h. After the blocking was completed, the blocking solution was discarded, and the plate was washed 3 times with a PBST buffer (PBS at pH 7.4 containing 0.1% tween-20) for later use. A biotin-labeled ligand protein at a fixed concentration was mixed with the antibody or fusion protein diluted in gradient, pre-incubated at 37° C. for 30 min, and added to a blocked microplate. The plate was incubated at 37° C. for 1.5 h. After the incubation was completed, the plate was washed 3 times with PBST. 100 μL of streptavidin-HRP (Invitrogen, 434323, diluted at a ratio of 1:4000) was added to each well, and the plate was incubated at 37° C. for 1 h. The supernatant was removed, and the plate was washed 3 times with PBST. […] The plate was read for absorbance values at 450 nm on a microplate reader, the curves for the inhibition of the binding of the ligands to the receptors were fitted with software, and the IC₅₀ values were calculated. […]
# [2] = molecular target: T1, human APRIL (5860-AP-010/CF, R&D …); assay: competition ELISA: biotin-labeled APRIL to coated TACI
# Protocol: as §1
binder,measurement,setting,value
B1,IC50,[1],2.43 nM
same,IC50,[2],0.833 nM
